Test results published in article PMC4336329 (PLoS ONE, 2015).
Hit rate of the full screen: of about 310,000 compounds, about 2,200 (0.71%) showed an effect of 50% or more. The effect is printed as a negative number. This is one part of the list.

Target: human ether-à-go-go-related gene (hERG) potassium channel (human, UniProt Q12809)
Assay: primary screen, population patch clamp on CHO cells stably expressing hERG

Sequence of human ether-à-go-go-related gene (hERG) potassium channel (Q12809 whole entry, looked up): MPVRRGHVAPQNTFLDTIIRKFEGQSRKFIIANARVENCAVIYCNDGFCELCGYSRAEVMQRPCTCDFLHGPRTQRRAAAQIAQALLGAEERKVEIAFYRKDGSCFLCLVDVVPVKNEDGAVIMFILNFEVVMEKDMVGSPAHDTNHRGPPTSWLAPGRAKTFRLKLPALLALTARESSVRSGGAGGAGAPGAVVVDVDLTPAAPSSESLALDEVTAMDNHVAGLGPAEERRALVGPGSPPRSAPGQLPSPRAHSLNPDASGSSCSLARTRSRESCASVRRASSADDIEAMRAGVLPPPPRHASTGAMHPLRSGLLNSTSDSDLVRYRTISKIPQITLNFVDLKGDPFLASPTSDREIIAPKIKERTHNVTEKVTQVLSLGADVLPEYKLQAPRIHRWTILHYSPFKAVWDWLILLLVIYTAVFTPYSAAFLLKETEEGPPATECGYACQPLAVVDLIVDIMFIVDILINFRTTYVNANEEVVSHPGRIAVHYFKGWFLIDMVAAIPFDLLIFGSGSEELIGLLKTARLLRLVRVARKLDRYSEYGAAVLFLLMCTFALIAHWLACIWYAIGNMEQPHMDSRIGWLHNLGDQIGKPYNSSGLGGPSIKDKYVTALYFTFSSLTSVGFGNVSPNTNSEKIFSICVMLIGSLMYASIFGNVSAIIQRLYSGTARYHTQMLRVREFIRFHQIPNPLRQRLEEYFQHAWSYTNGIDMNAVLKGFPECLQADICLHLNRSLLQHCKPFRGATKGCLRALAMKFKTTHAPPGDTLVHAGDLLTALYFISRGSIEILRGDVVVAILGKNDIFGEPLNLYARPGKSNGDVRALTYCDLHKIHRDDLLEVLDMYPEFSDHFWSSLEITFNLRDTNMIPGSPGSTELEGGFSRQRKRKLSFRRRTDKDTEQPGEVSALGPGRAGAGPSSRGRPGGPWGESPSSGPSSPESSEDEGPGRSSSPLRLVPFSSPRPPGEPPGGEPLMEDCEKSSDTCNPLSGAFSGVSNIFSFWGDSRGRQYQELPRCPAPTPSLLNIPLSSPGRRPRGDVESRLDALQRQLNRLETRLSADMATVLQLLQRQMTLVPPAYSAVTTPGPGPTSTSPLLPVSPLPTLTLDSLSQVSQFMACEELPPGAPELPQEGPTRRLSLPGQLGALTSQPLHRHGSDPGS

SMILES	hERG current change (%, negative = inhibition) at 1uM
O=C(CCSc1ccc(Cl)cc1)NC12CC3CC(CC(C3)C1)C2	21.1%
COc1ccc(N2CCN(CC(O)COc3c(OC)cccc3OC)CC2)cc1.Cl (centres unmarked)	-7.71%
CCOc1cc(CNCC2CCCO2)cc(Br)c1OCC(N)=O.Cl (centres unmarked)	5.37%
Cc1cccc(NC(=O)[C@@H](NC(=O)[C@@H]2Cc3ccccc3CN2)C(C)C)c1	-29.7%
CC(=O)Nc1ccc(S(=O)(=O)N2CCCC(C(=O)N3CCN(c4ccccc4)CC3)C2)cc1 (centres unmarked)	-1.2%
COc1ccc(CNC(=O)CCC(=O)N2CC(C)Oc3ccccc32)cc1 (centres unmarked)	-0.874%
Cc1cc(=O)n2[nH]c(=O)c(N=Nc3ccccc3)c2[nH]1	5.12%
COc1cc(OC)c(OC)cc1/C=N/Nc1ncnc2c1[nH]c1ccccc12	-4.45%
CCOC(=O)c1[nH]c2ccc(OC)cc2c1NC(=S)N1CCN(c2ccc(F)cc2)CC1	8.21%
COc1cc2c(cc1NC(=O)c1ccco1)CCCC2	6.74%
CC1CC(=O)Nc2ccccc2N1S(=O)(=O)c1ccc(Cl)cc1 (centres unmarked)	14.5%
COC(=O)C1C(O)=C(C=NCc2ccccc2)C(=O)CC1(C)C (centres unmarked)	-0.0891%
CS(=O)(=O)c1ccc(Cl)c(NC(=O)COC(=O)c2c(Cl)cccc2Cl)c1	6.65%
CCC(=O)N/C(=N/c1nc(C)cc(C)n1)Nc1ccccc1	8.14%
O=c1[nH]c2ccccc2n1C1=CCCC1	-5.82%
COc1ccccc1NC(=S)NC1CCC(CC2CCC(NC(=S)Nc3ccccc3OC)CC2)CC1 (centres unmarked)	10.5%
Cc1ccc(NC(=O)NC(=O)CSc2n[nH]c(N)n2)c(C)c1	13.9%
CCOC(=O)N1CCN(C(=O)NC23CC4CC(CC(C4)C2)C3)CC1	3.33%
COc1ccc(-c2noc(-c3cc(C)cc(C)c3)n2)cc1OC	15.7%

SMILES	hERG current change (%, negative = inhibition) at 1uM
CC(C)(C)NC(=O)CN(C(=O)c1csnn1)c1ccccc1-c1ccccc1	9.62%
CN(C)c1ccc(C(=O)NN2C(=O)c3ccccc3C2=O)cc1	25%
Cn1c(=O)c2cc(S(=O)(=O)NC(C(=O)N3CCCCCC3)c3ccccc3)ccc2n(C)c1=O (centres unmarked)	5.17%
COc1ccc(Cc2nnc3sc(SCC(=O)Nc4ccccc4)nn3c2=O)cc1OC	2.91%
O=C(CSc1ncnc2[nH]ncc12)Nc1cccc(Oc2ccccc2)c1	-0.655%
CC[C@@H]1C(=O)OC[C@@H]1Cc1cncn1C.O=[N+]([O-])O	9.36%
COC(=O)C1CCN(Cc2ccc(OCCCN3CCN(c4ccc([N+](=O)[O-])cc4)CC3)cc2)CC1	1.13%
CNC(=S)N1CCN(C(=O)C2CCCO2)CC1 (centres unmarked)	10.5%
CC(C)C(C)NC(=O)COc1ccc(Sc2ccc(OCC(=O)NC(C)C(C)C)cc2)cc1 (centres unmarked)	-10.1%
Cc1ccc(N2CC(C(=O)N3CCc4ccccc4C3)CC2=O)cc1 (centres unmarked)	-17.7%
O=C(NCCO)c1cc2c(s1)CCC2	7.67%
COc1ccc(OC)c(Nc2ncnc3c2cnn3-c2ccccc2)c1	9.51%
COc1ccc(-c2cc(C(F)F)n3ncc(C(=O)N4CCc5ccccc5C4)c3n2)cc1	12%
CC(NC(=O)c1cc2ccccc2o1)c1ccccc1 (centres unmarked)	17.2%
CC1=C(C#N)C(/C=N/OCc2ccc(Cl)cc2)CC(=O)N1 (centres unmarked)	-3.7%
CN1C(=O)/C(=C/c2ccc(OCc3ccc(C(=O)O)cc3)c(Cl)c2)NC1=S	16.6%
COc1ccc(CN2C(=O)CS(=O)CC2=O)cc1OC	12.2%
Cc1ccc2c(SCC(=O)NCc3ccco3)nc(-c3ccc(F)cc3)nc2c1	-0.816%
COc1cc(CC(=O)OCC(=O)N2CC(=O)Nc3ccccc32)cc(OC)c1OC	2.52%

SMILES	hERG current change (%, negative = inhibition) at 1uM
CCOC(=O)[C@H]1[C@H]2COc3cc(OC)ccc3[C@@H]2N2C(=O)c3cc(OC)c(OC)cc3NC(=O)[C@@]12C	10.7%
CCC(Sc1nncn1C)C(=O)Nc1nnc(-c2ccccc2Cl)s1 (centres unmarked)	7.21%
O=C(CC1CCCC1)NCCc1cn2ccccc2n1	8.21%
Cc1csc(NC(=O)CCC(=O)N(CC(=O)NC2CCCC2)Cc2ccccc2)n1	-5.1%
N#Cc1c2c(c[nH]c1=O)CCN2Cc1ccccc1	10.8%
CCCCN(CC)c1nc(N)c(C#N)c(CC#N)c1C#N	-8.11%
CN1CCN(C(=O)c2cnn3c(C(F)(F)F)cc(-c4ccc5c(c4)OCO5)nc23)CC1	-0.295%
Cc1cc(C(=O)NC2CCCc3ccccc32)ccc1[N+](=O)[O-] (centres unmarked)	11.9%
O=C(O)COc1cccc(NC(=O)C2CCCO2)c1 (centres unmarked)	14.7%
COc1cc(C(=O)O)c2ccccc2n1	11.5%
Cc1cc(NC(=O)CSc2nc3ccccc3c(=O)n2C2CCCC2)no1	5.97%
O=C(Cc1noc2ccccc12)Nc1ccccn1	8.9%
O=C(OCC(=O)c1ccc(Cl)cc1Cl)c1ccc2c(c1)C(=O)N(c1cccc3ncccc13)C2=O	1.87%
Cc1ccc(C(=O)Cn2cnc3ccccc3c2=O)cc1C	10.3%
COc1ccc(OC)c(N2C(=O)NC(=O)C(CCc3ccncc3)(CCc3ccncc3)C2=O)c1	-0.534%
Cc1ccc2[nH]c3c(=O)n4c(nc3c2c1)SCC4	10.8%
COc1cccc(NC(=O)Cn2c3ccc(OC)cc3c3nc4n(c(=O)c32)CCS4)c1	16.8%
Cc1ccc(C(=O)NC(=C(Cl)Cl)S(=O)(=O)c2ccccc2)cc1	16.1%
